A collection of fitness landscapes (doi:10.1126/science.1257360)
The other results are listed elsewhere or left out.

B1: PhoQ; a variant is named by its letters at X, in order, P23837 (parent)
chain: MKKLLRLFFPLSLRVRFLLATAAVVLVLSLAYGMVALIGYSVSFDKTTFRLLRGESNLFYTLAKWENNKLHVELPENIDKQSPTMTLIYDENGQLLWAQRDVPWLMKMIQPDWLKSNGFHEIEADVNDTSLLLSGDHSIQQQLQEVREDDDDAEMTHSVAVNVYPATSRMPKLTIVVVDTIPVELKSSYMVWSWFIYVLSANLLLVIPLLWVAAWWSLRPIEALAKEVRELEEHNRELLNPATTRELTSLVRNLNRLLKSERERYDKYRTTLTDLTHSLKTPLXXLQXXLRSLRSEKMSVSDAEPVMLEQISRISQQIGYYLHRASMRGGTLLSRELHPVAPLLDNLTSALNKVYQRKGVNISLDISPEISFVGEQNDFVEVMGNVLDNACKYCLEFVEISARQTDEHLYIVVEDDGPGIPLSKREVIFDRGQRVDTLRPGQGVGLAVAREITEQYEGKIVAGESMLGGARMEVIFGRQHSAPKDE

Variants of: B1
Assay: enrichment ratio after two sorts for PhoP signalling (ratio (wild type AVST 3.29)); higher = more functional
Conditions: with PhoP (E. coli)

Point of comparison: SNCI, enrichment ratio 21.8. Against it:
- WSNN — lower, ≤ 0.25
- QSMR — lower, ≤ 0.25
- RYWW — lower, ≤ 0.25
- DAWS — lower, ≤ 0.25
- VTKN — lower, ≤ 0.25
- HMDG — lower, ≤ 0.25
- THSN — lower, 2.57
- RIQY — lower, ≤ 0.25
- PSGG — lower, ≤ 0.25
- SAGI — lower, 2.88
- SCIH — lower, 1.7
- IGCI — lower, ≤ 0.25
- MLFY — lower, ≤ 0.25
- WVHW — lower, ≤ 0.25
- VVGI — lower, ≤ 0.25
- QAVT — lower, ≤ 0.25
- RGMK — lower, ≤ 0.25
- FCTH — lower, ≤ 0.25
- GYQL — lower, ≤ 0.25
- VGMG — lower, ≤ 0.25
- FVLF — lower, 4.75
- IWGN — lower, ≤ 0.25
- MWRS — lower, ≤ 0.25
- AKDQ — lower, ≤ 0.25
- NNFW — lower, ≤ 0.25
- RIAY — lower, ≤ 0.25
- GQVL — lower, 2.17
- VINV — lower, ≤ 0.25
- DWFF — lower, ≤ 0.25
- GYFQ — lower, ≤ 0.25
- LYSN — lower, ≤ 0.25
- AWCC — lower, ≤ 0.25
- IAKH — lower, ≤ 0.25
- FIQP — lower, ≤ 0.25
- QGWW — lower, ≤ 0.25
- TKTI — lower, 0.391
- KMIQ — lower, ≤ 0.25
- GANN — lower, ≤ 0.25
- KCPS — lower, 0.491
- TIID — lower, ≤ 0.25
- DCET — lower, ≤ 0.25
- GNIN — lower, ≤ 0.25
- SPMA — lower, ≤ 0.25
- LHFF — lower, ≤ 0.25
- DSYT — lower, ≤ 0.25
- YRHE — lower, ≤ 0.25
- MSTI — lower, 18.2
- ICHG — lower, ≤ 0.25
- WEPE — lower, ≤ 0.25
- DPRI — lower, ≤ 0.25
- MTKW — lower, ≤ 0.25
- AWDK — lower, ≤ 0.25
- RYVW — lower, ≤ 0.25
- MHRP — lower, ≤ 0.25
- DGSV — lower, ≤ 0.25
- KIRV — lower, ≤ 0.25
- GHKR — lower, ≤ 0.25
- WGIM — lower, ≤ 0.25
- KKEA — lower, ≤ 0.25
- DCDL — lower, ≤ 0.25
- PKRD — lower, ≤ 0.25
- NADR — lower, ≤ 0.25
- DHPE — lower, ≤ 0.25
- HHWS — lower, ≤ 0.25
- ILLT — lower, ≤ 0.25
- MEHV — lower, 14.3
- WNMW — lower, ≤ 0.25
- VQTV — lower, ≤ 0.25
- QLGN — lower, ≤ 0.25
- RIDD — lower, ≤ 0.25
- SGGW — lower, ≤ 0.25
- HYFE — lower, ≤ 0.25
- FYQI — lower, ≤ 0.25
- EAYQ — lower, ≤ 0.25
- MCLN — lower, 2.16
- VVKK — lower, ≤ 0.25
- ANSV — lower, 7.03
- WRGL — lower, ≤ 0.25
- HDSK — lower, ≤ 0.25
- NGQI — lower, ≤ 0.25
- PHNV — lower, ≤ 0.25
- WRWA — lower, ≤ 0.25
- TETY — lower, 6.06
- AWHK — lower, ≤ 0.25
- KMCA — lower, ≤ 0.25
- LVPL — lower, ≤ 0.25
- YSCL — lower, 7.36
- LPTV — lower, ≤ 0.25
- KTYY — lower, ≤ 0.25
- IKHV — lower, ≤ 0.25
- DDCM — lower, ≤ 0.25
- YGEC — lower, ≤ 0.25
- DVTL — lower, ≤ 0.25
- WRFT — lower, ≤ 0.25
- YWES — lower, ≤ 0.25
- PHGG — lower, ≤ 0.25
- GCTS — lower, 0.341
- IVGV — lower, ≤ 0.25
- HIAG — lower, ≤ 0.25
- MAGS — lower, 17.7
- HHWF — lower, ≤ 0.25
- MSSH — lower, 0.512
- NSHW — lower, ≤ 0.25
- MMHT — lower, ≤ 0.25
- GTKA — lower, ≤ 0.25
- ILKA — lower, ≤ 0.25
- IMSY — lower, ≤ 0.25
- MNAS — lower, 6.24
- RVYH — lower, ≤ 0.25
- WGIG — lower, ≤ 0.25
- ITVL — lower, ≤ 0.25
- QRTW — lower, ≤ 0.25
- ASEP — lower, ≤ 0.25
- HVPH — lower, ≤ 0.25
- NSPF — lower, ≤ 0.25
- YYEE — lower, ≤ 0.25
- FDEG — lower, ≤ 0.25
- LFQD — lower, ≤ 0.25
- RTEW — lower, ≤ 0.25
- LTSV — lower, ≤ 0.25
- RDEC — lower, ≤ 0.25
- WMMF — lower, ≤ 0.25
- HDVS — lower, ≤ 0.25
- INDW — lower, ≤ 0.25
- QMSN — lower, 0.645
- FSSW — lower, ≤ 0.25
- IKWT — lower, ≤ 0.25
- LTNM — lower, ≤ 0.25
- DTDR — lower, ≤ 0.25
- KKMR — lower, ≤ 0.25
- YCKV — lower, ≤ 0.25
- WHQG — lower, ≤ 0.25
- FGCQ — lower, 13.2
- QNQC — lower, ≤ 0.25
- VRIR — lower, ≤ 0.25
- PPYF — lower, ≤ 0.25
- TLFK — lower, ≤ 0.25
- MGQQ — lower, ≤ 0.25
- GARR — lower, ≤ 0.25
- MTQY — lower, ≤ 0.25
- NLFL — lower, ≤ 0.25
- ISTH — lower, ≤ 0.25
- RMYS — lower, ≤ 0.25
- VWVH — lower, ≤ 0.25
- LGVG — lower, ≤ 0.25
- HLRN — lower, ≤ 0.25
- VMTA — lower, ≤ 0.25
- NNAW — lower, ≤ 0.25
- ATKA — lower, ≤ 0.25
- THQY — lower, 15
- DREW — lower, ≤ 0.25
- RHGI — lower, ≤ 0.25
- AREF — lower, ≤ 0.25
- TSFF — lower, 2.07
- AMLH — lower, 3.19
- QGTK — lower, ≤ 0.25
- DYQS — lower, ≤ 0.25
- WSCR — lower, ≤ 0.25
- ESRM — lower, ≤ 0.25
- PNGY — lower, ≤ 0.25
- YFTV — lower, ≤ 0.25
- DLLS — lower, ≤ 0.25
- EDSK — lower, ≤ 0.25
- QLLR — lower, ≤ 0.25
- PTGC — lower, ≤ 0.25
- QQNT — lower, ≤ 0.25
- FQRG — lower, ≤ 0.25
- KTVD — lower, ≤ 0.25
- PACF — lower, ≤ 0.25
- VWEF — lower, ≤ 0.25
- ESNE — lower, ≤ 0.25
- EHEG — lower, ≤ 0.25
- GMLE — lower, 1.8
- PAMI — lower, ≤ 0.25
- WYNP — lower, ≤ 0.25
- SCSV — lower, 9.38
- TGMI — lower, 13.2
- MGDE — lower, ≤ 0.25
- GCPG — lower, ≤ 0.25
- GSPD — lower, ≤ 0.25
- TIHE — lower, ≤ 0.25
- FNSF — lower, ≤ 0.25
- QSVV — lower, ≤ 0.25
- WFIF — lower, ≤ 0.25
- ICNM — lower, ≤ 0.25
- DQFK — lower, ≤ 0.25
- IGVS — lower, ≤ 0.25
- QKFY — lower, ≤ 0.25
- VQAN — lower, ≤ 0.25
- IHEE — lower, ≤ 0.25
- ETTG — lower, ≤ 0.25
- MDIQ — lower, 0.654
- EAFW — lower, ≤ 0.25
- WDGM — lower, ≤ 0.25
- PMHV — lower, ≤ 0.25
- LSKE — lower, ≤ 0.25
- FYSM — lower, ≤ 0.25
- VEIS — lower, 1.86
- KTPY — lower, ≤ 0.25
- YNMT — lower, ≤ 0.25
- QDDA — lower, ≤ 0.25
- HCTY — lower, ≤ 0.25
- TVNY — lower, ≤ 0.25
- HDLA — lower, ≤ 0.25
- VVWT — lower, ≤ 0.25
- LCQN — lower, ≤ 0.25
- TKTH — lower, ≤ 0.25
- YQSN — lower, ≤ 0.25
- YDDI — lower, ≤ 0.25
- CSFF — lower, 4.74
- VACG — lower, ≤ 0.25
- RCTL — lower, ≤ 0.25
- RAHA — lower, ≤ 0.25
- AIYQ — lower, ≤ 0.25
- LNSF — lower, ≤ 0.25
- SPCQ — lower, ≤ 0.25
- CLLS — lower, ≤ 0.25
- GNST — lower, 15.1
- DQVN — lower, ≤ 0.25
- GYLN — lower, ≤ 0.25
- VVVT — lower, ≤ 0.25
- HCHW — lower, ≤ 0.25
- NLVI — lower, ≤ 0.25
- YMWG — lower, ≤ 0.25
- WTFI — lower, ≤ 0.25
- HISK — lower, ≤ 0.25
- MRAL — lower, ≤ 0.25
- FLFH — lower, ≤ 0.25
- RPKQ — lower, ≤ 0.25
- FPNL — lower, ≤ 0.25
- AVMM — higher, 52.7
- NTGG — lower, ≤ 0.25
- QRFD — lower, ≤ 0.25
- IRAD — lower, ≤ 0.25
- PAVK — lower, ≤ 0.25
- HDDY — lower, ≤ 0.25
- MLLI — lower, 5.99
- GRQD — lower, ≤ 0.25
- ECQD — lower, ≤ 0.25
- QGYN — lower, ≤ 0.25
- HMNL — lower, ≤ 0.25
- SICI — lower, 21
- NYGN — lower, ≤ 0.25
- QVMM — lower, ≤ 0.25
- LYLM — lower, ≤ 0.25
- YRDW — lower, ≤ 0.25
- IRPS — lower, ≤ 0.25
- MHHL — lower, ≤ 0.25
- RGAW — lower, ≤ 0.25
- ISAF — lower, ≤ 0.25
- QEPP — lower, ≤ 0.25
- LTCC — lower, ≤ 0.25
- QTPS — lower, ≤ 0.25
- AIKR — lower, ≤ 0.25
- AHNK — lower, ≤ 0.25
- AQLW — lower, 5.89
- GTRC — lower, ≤ 0.25
- TPPM — lower, ≤ 0.25
- PIFW — lower, 1.39
- QIFE — lower, ≤ 0.25
- AWPN — lower, ≤ 0.25
- TPQM — lower, ≤ 0.25
- AESG — higher, 25.4
- EDPT — lower, ≤ 0.25
- IPDK — lower, ≤ 0.25
- KPGG — lower, ≤ 0.25
- FPMM — lower, ≤ 0.25
- GKWS — lower, ≤ 0.25
- RFRH — lower, ≤ 0.25
- DDGI — lower, ≤ 0.25
- GQEH — lower, ≤ 0.25
- PPKC — lower, ≤ 0.25
- IAGY — lower, ≤ 0.25
- KFVV — lower, ≤ 0.25
- FDSD — lower, ≤ 0.25
- GKDL — lower, ≤ 0.25
- DYTS — lower, ≤ 0.25
- TERE — lower, ≤ 0.25
- CHWL — lower, ≤ 0.25
- YTMY — lower, ≤ 0.25
- EMIV — lower, ≤ 0.25
- RLGY — lower, ≤ 0.25
- VQTG — lower, ≤ 0.25
- PKAD — lower, ≤ 0.25
- NSGM — lower, ≤ 0.25
- VWAF — lower, ≤ 0.25
- RRSD — lower, ≤ 0.25
- PSQH — lower, ≤ 0.25
- LDRM — lower, 1.21
- WCIP — lower, ≤ 0.25
- SWFT — lower, ≤ 0.25
- HYHH — lower, ≤ 0.25
- RYMH — lower, ≤ 0.25
- TLPL — lower, ≤ 0.25
- FSFH — lower, ≤ 0.25
- RVHI — lower, ≤ 0.25
- IEVT — lower, 3.84
- QLMM — lower, ≤ 0.25
- DTAQ — lower, ≤ 0.25
- KHWQ — lower, ≤ 0.25
- FNMF — lower, ≤ 0.25
- ESPC — lower, ≤ 0.25
- RIAV — lower, ≤ 0.25
- QDNV — lower, ≤ 0.25
- FIMK — lower, ≤ 0.25
